# In article PMC4336329 (PLoS ONE, 2015):
# Hit rate of the full screen: of about 310,000 compounds, about 14,000 (4.5%) showed an effect of 50% or more. The effect is printed as a negative number. The list shows a part of the results.
# Target: human ether-à-go-go-related gene (hERG) potassium channel (human, UniProt Q12809)
# Assay: primary screen, population patch clamp on CHO cells stably expressing hERG
# 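Further: peak tail current of the secondary pulse compared with the same well before compound.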
# Chain of human ether-à-go-go-related gene (hERG) potassium channel (Q12809 whole entry, looked up): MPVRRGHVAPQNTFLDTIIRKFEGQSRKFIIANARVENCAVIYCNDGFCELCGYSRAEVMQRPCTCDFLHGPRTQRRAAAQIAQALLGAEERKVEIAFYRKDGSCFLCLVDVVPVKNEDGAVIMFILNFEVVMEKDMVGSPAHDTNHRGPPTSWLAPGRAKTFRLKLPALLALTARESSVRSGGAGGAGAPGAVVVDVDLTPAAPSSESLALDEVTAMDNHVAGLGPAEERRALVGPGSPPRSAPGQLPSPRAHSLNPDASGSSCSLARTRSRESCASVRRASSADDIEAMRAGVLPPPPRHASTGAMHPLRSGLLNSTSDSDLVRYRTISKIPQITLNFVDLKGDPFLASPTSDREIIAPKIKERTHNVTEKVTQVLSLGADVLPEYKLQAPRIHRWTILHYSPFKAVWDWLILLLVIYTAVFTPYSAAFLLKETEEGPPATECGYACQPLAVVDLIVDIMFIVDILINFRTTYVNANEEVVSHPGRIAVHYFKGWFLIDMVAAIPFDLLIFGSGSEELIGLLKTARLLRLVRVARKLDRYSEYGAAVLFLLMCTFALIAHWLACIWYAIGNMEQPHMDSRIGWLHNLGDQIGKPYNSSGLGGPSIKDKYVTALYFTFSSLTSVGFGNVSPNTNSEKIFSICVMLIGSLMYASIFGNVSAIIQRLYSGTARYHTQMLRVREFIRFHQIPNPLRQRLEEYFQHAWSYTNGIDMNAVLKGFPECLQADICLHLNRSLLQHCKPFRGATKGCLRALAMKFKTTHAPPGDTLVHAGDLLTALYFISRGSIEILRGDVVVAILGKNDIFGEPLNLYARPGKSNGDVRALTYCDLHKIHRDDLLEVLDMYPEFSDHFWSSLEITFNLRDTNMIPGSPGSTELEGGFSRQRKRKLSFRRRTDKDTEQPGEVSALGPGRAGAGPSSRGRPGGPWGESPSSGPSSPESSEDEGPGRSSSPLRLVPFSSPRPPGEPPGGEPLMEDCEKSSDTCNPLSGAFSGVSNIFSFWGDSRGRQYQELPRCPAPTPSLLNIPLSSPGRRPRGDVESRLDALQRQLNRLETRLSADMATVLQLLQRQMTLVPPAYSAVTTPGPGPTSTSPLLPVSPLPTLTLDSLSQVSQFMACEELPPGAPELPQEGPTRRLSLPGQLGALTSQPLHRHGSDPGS
row,Compound,"hERG current change (%, negative = inhibition) at 10uM"
1,Cc1ccccc1C(=O)c1ccc2c(c1)n(C)c(=O)n2C,2.11%
2,COc1ccc(C2CC(c3ccccc3)=NN2C(=O)COC(=O)c2ccc(Cl)nc2)cc1 (centres unmarked),13.8%
3,CCOCC(=O)Nc1c(C(=O)Nc2ccccc2OC)oc2ccccc12,1%
4,CCC(C)[C@H](NC(=O)N1CC(=O)Nc2ccccc21)C(=O)Nc1ccccc1C (some centres unmarked),8.8%
5,COc1cc(/C=N/Nc2nc(C)cc(=O)[nH]2)ccc1O,14.9%
6,O=C(Nc1cccc([N+](=O)[O-])c1)N1CCCCCC1,15.7%
7,O=c1c2ccccc2nnn1CSc1nnc(Nc2ccccc2)s1,-5.09%
8,Cc1c(NC(=O)c2ccc(-c3ccccc3)cc2)cccc1C(=O)O,1.12%
9,O=C(COc1ccccc1Cl)N(Cc1cccs1)C1CCS(=O)(=O)C1 (centres unmarked),-10.1%
10,O=C(c1ccccc1)c1ccccc1N1C(=O)C=CC1=O,4.1%
11,CN(CCN1CCOCC1)C(=O)CC1C(=O)NCCN1Cc1ccccc1F (centres unmarked),12%
12,O=C1c2cccnc2C(=O)N1Cc1ccc(S(=O)(=O)N2CCOc3ccccc32)cc1,14.5%
13,C/C(=N/NC(=O)c1cccnc1)C1=C(O)CC(C)(C)CC1=O,13.5%
14,CC(OC(=O)Cc1ccc(F)cc1)C(=O)NCc1ccc2c(c1)OCO2 (centres unmarked),-27.7%
15,CC(=O)c1ccc(NC(=S)NCCCn2ccnc2)cc1,10.2%
16,Cc1cccc(C(=O)NCC(=O)NC(C)CCc2ccccc2)c1 (centres unmarked),-0.165%
17,CC1C(=O)N2CCCc3cc(NC(=O)C4CCCCC4)cc1c32 (centres unmarked),4.17%
18,COc1ccc(-c2noc(CCCC(=O)NC3CCCCC3)n2)cc1,-1.35%
19,O=C(c1cc(COc2ccccc2)on1)N1CCCC(CN2CCOCC2)C1 (centres unmarked),-0.796%

row,Compound,"hERG current change (%, negative = inhibition) at 10uM"
1,COc1ccc(-c2nnc(CSc3nnc(-c4ccncc4)n3C3CCCCC3)o2)cc1OC,-28.7%
2,O=C(c1cnn2c(C(F)F)cc(-c3ccccc3)nc12)N1CCN2CCCC2C1 (centres unmarked),-30.4%
3,Cc1ccccc1C1(CCN2CCCCC2)CCOC(C)(C)C1.Cl (centres unmarked),-7.96%
4,COc1cc(/C=C/C(=O)OC2CC3CCC2(C)C3(C)C)ccc1O (centres unmarked),7.13%
5,COC(=O)CSc1nnc(-c2ccc(S(=O)(=O)N3CCCCC3)cc2)o1,7.69%
6,CCOc1ccccc1Nc1ccc(C(=O)O)cc1NC(C)=O,27.2%
7,Cc1ccc(-c2n[nH]c3c2C(c2cccc(O)c2)N(c2ccc(C(=O)O)cc2)C3=O)cc1 (centres unmarked),4.49%
8,Cc1cc2ncn(C3CC(=O)N(Cc4ccc(N5CCCC5=O)cc4)C3=O)c2cc1C (centres unmarked),-32.5%
9,Cc1cc(C)nc(SCC(N)=O)n1,10.3%
10,OC(CN1CCOCC1)Cn1cnc2ccccc21 (centres unmarked),5.65%
11,COc1ccc(-c2csc3ncnc(N4CCN(c5ccccc5OC)CC4)c23)cc1,4.75%
12,CCN1CCN(c2ccc(S(=O)(=O)N3CCCCC3)cc2NC(=O)Cc2ccc(Cl)c(Cl)c2)CC1,-48.5%
13,CC(=O)Nc1cccc(-c2nc3ccccc3o2)c1,26.7%
14,Clc1ccc(C2=NNC(=NCc3ccccc3)SC2)cc1,-11.7%
15,Cc1c(NC(=O)C2(c3ccc(Cl)cc3)CCCC2)c(=O)n(-c2ccccc2)n1C,-20.4%
16,Cc1ccc(NC(=O)C(=O)NCc2ccncc2)cc1,15.3%
17,Cc1[nH]c2ccc(F)cc2c1CCN(Cc1ccncc1)C(=S)Nc1ccccc1,-34.8%
18,CC(C)Cc1csc(NC(=O)c2ccc(Cl)cc2)c1C(=O)O,54.9%
19,COC(=O)CSc1nc2ccc(NC(=O)CSc3nnnn3Cc3ccccc3)cc2s1,10.8%

row,Compound,"hERG current change (%, negative = inhibition) at 10uM"
1,COc1ccc(NC(=O)N2CCN(c3cccc(C(F)(F)F)c3)CC2)cc1OC,-1.73%
2,Cn1c(N)c(C(=O)COC(=O)c2cccs2)c(=O)n(C)c1=O,-1.73%
3,O=C(CCCSc1ccc(Cl)cc1)Nc1cc(S(=O)(=O)N2CCOCC2)ccc1O,10.3%
4,O=C(NC1CCCC1)c1sc(=S)n2c1[nH]c(=O)c1ccccc12,10.6%
5,COc1ccc(N2CCN(CCC3Oc4cc([N+](=O)[O-])ccc4NC3=O)CC2)cc1 (centres unmarked),-19.1%
6,CC1(c2cccc(Br)c2)NC(=O)N(CC(=O)N2CCN(C(=O)c3ccco3)CC2)C1=O (centres unmarked),-8.78%
7,COCCCNC(=O)C12CCC(C)(C(=O)C1)C2(C)C (centres unmarked),-10.9%
8,COc1ccccc1N(CC(=O)NCCSC(C)(C)C)S(C)(=O)=O,4.64%
9,O=C(Nc1nccs1)C1CC(=O)N(c2ccccc2Cl)C1 (centres unmarked),8.77%
10,CC(=O)Cc1ccccc1OCC(=O)O,24%
11,NC(=O)c1c(NC(=O)c2ccccc2C(=O)O)sc2c1CCCC2,3.51%
12,CCOc1ccccc1-c1cc(C(=O)N2CCOCC2)c2ccccc2n1,-7.06%
13,O=C1NN(c2ccc(Cl)c(Cl)c2)C(=O)/C1=C/c1ccc(-c2ccccc2C(=O)O)o1,16%
14,Cc1nnc(SCC(=O)Nc2ccc(C(N)=O)cc2)n1-c1ccccc1,14%
15,CCOc1ccc(NC(=O)CN(C)C(=O)c2ccccc2Cc2ccccc2)cc1OCC,-14%
16,Cn1ccc(C(=O)Nc2ccc(Br)cc2Br)n1,-1.49%
17,O=C(N=c1ccn(-c2nc3ccccc3nc2NS(=O)(=O)c2ccc(Cl)cc2)cc1)c1cccs1,26.2%
18,CCN(CC(=O)Nc1ccccc1OC)C(=O)COc1ccc2ccccc2c1,-2.9%
